Reference: the supplement of paper PMC11417369
This is one part of the list.

System: PF3D7_0420300 AP2 domain 1 (GST-tagged)
Assay: gcPBM binding intensity (ln(normalized median fluorescence intensity)); higher = stronger DNA binding
Method in brief: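 Plasmodium falciparum DNA-binding domains carrying a GST tag were expressed in E. coli and applied for 1 h, at about 25 μg on average, to an Agilent 4 × 180k array. The array held primer-extended double-stranded 36-bp intergenic genomic probes together with negative controls, and binding took place in 1× PBS with 1% milk, 0.2 mg/ml BSA, 0.5% salmon testes DNA and 0.03% Triton X-100. An Alexa488 anti-GST antibody detected bound protein, and the array was scanned at 488 nm. Binding intensity is taken as the highest Masliner-normalised natural-log median intensity across replicate spots of either probe orientation.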

Row | Sequence | gcPBM binding intensity (ln)
1 | ATATATATATATTCCACACACACACCCAAAAAAAAA [CACACA_site3649] | 9.7
2 | TTTTATTTTTTATTTGCACACAATATGTAAAAAAAT [CACACA_site2927] | 9.18
3 | AATCATTTTATTATCCTAACAAAAAAAAAATATATT [CACACA_negctrl_site115] | 8.99
4 | ACGATGCATTAATCTGCACACCACAACAAAACGTTT [CACACA_site899] | 9.31
5 | ACAACGCGTTAAATGTGTACATATTTATAAGTATAT [XGTACX_site8777] | 9.23
6 | AGCTATGTATTCTACACACACATACAGACATATATA [CACACA_site3428] | 9.89
7 | TTTGCATTTCTTAATTGTACTTAAAAAAAAAATAAT [XGTACX_site758] | 8.78
8 | TATACCAATGAATGAGTGCAAAGAAGATAAGGAAAA | 9.43
9 | AAGGTATTTATAACTACACACTTATTTATAACCTAA [CACACA_site6194] | 9.34
10 | ACTTATTGTGGTTTTGCATGTAGCATTTTTACATAC [TGCATGCA_site247] | 9.65
11 | AATAAAATGAAATGAAATAAAAAAAAAAAAAAAATG [TGCATGCA_negctrl_site305] | 9.41
12 | TATATTATAAACATATGTACATATGTATAAATACAT [XGTACX_site722] | 9.19
13 | AAAAAAAAAAAAAAATTAAAGTAATGGAAAAAAAAA [CACACA_negctrl_site1666] | 9
14 | AACATATATATATACACACACATATATATATGAAAT [CACACA_site279] | 9.97
15 | ATTATTAATATTATATGTACGCACTATATCAAGGCT [XGTACX_site6468] | 9.16
16 | TATACATACATACATACACACACACCGATATATACA [CACACA_site8184] | 10.2
17 | TTCCAAAAAATTATTACACACATATGGGCACATATA [CACACA_site679] | 9.48
18 | ACAAAAAAACATGAAACACACACAAATATATATATA [CACACA_site8566] | 10
19 | TGCCTATTTTGGATGTGTACACATATATATATTTAT [XGTACX_site6741] | 9.57
20 | ACGCTAATTATGTGCACACAAATTAAAGGTCTACAA [CACACA_site147] | 9.4
21 | AATGTTATTTGTTTATCACACATTAGGATGTTTATA [CACACA_site5710] | 9.43
22 | ATTCTATAATATAAGAGTACTTATTTTTTTTAATTT [XGTACX_site7671] | 9.02
23 | TATAAAATTAAACAAAGTACTAGACATATATATAGA [XGTACX_site3247] | 9.44

Row | Sequence | gcPBM binding intensity (ln)
24 | AAAAAAAAAAAAAACACACACACAAGAGTATATAAA [CACACA_site6580] | 9.99
25 | TTATATATTTTTTTTTGTACATAGAAGAGGGAAAAA [XGTACX_site2178] | 8.95
26 | ATGAATTTATTACATTGTACATTTTTAAAAGGTTAC [XGTACX_site124] | 9.11
27 | TTCCCTCCTCAAAATTGTACTAGAATAATAACATAA [XGTACX_site8765] | 8.91
28 | TACACGCTAAAATACACACACACACCCACATATATA [CACACA_site4153] | 10.2
29 | TTTTTTAAACATATTATGTGTATTACATAGTTATGC [XGTACX_negctrl_site596] | 8.93
30 | TTATTATATTAAAATTGTACTTGCTTTCAATATGAT [XGTACX_site5305] | 9.12
31 | TTATAATATTATAAAATAACATTTATTAATTATTGG [CACACA_negctrl_site1794] | 8.87
32 | TAAACGTTATATAGTGCATGTCATATTTTATTATAT [TGCATGCA_site935] | 9.35
33 | ATCTTTGGAAATTTATGTACTTATATTTATATTGTA [XGTACX_site6606] | 9.37
34 | ATTTCTAGTTTAAGATGTACTTTAATAAAAATTATT [XGTACX_site4820] | 9.03
35 | AAATATCAACAAAAATGTACAAATGTAAAAGAATAT [XGTACX_site4676] | 9.64
36 | AGGTTAAAAATAAATACACACATTTTATGTCTGTAT [CACACA_site996] | 9.36
37 | TTTTTTTTTTAATAAAGTACATATAAATTACCTAAT [XGTACX_site4434] | 8.85
38 | ACTATACAGTTATACACACACATATATATATAATAT [CACACA_site310] | 9.9
39 | AAATGAGTATTCATATGTACACAAATAAAAAATTAA [XGTACX_site2968] | 9.13
40 | ATGGAAGGAAACAATAAAAAAAAAAAAAAATATATA [XGTACX_negctrl_site594] | 9.23
41 | AATGACAACCTTGTCACACATATATATATATATATA [CACACA_site5977] | 9.17
42 | TTTTTTATTTGACAAGCACACACTTAAATATATATA [CACACA_site3358] | 9.31
43 | CATTTAAAGGACAAGCTGCACTTACAAAATAAAAAA | 8.97
44 | ATATTATAATTAAAACGTACGTATTTATGAATTCAT [XGTACX_site1047] | 9.16
45 | TACATAAATTAAAACACACACACACTAAAAAAAAAA [CACACA_site7130] | 10.1
46 | TATTAATTAAACCATACACACATAATTTTTTTATAA [CACACA_site843] | 9.47

Row | Sequence | gcPBM binding intensity (ln)
47 | GTTAATATTTACTACACACACTTAAAATATGTATAT [CACACA_site4194] | 9.74
48 | TTTTCATTTTTCTTTACACACATATATTTATTTATA [CACACA_site7119] | 9.73
49 | AAAAGAATATAAAGATACATTGTGATATGGGACAAA [CACACA_negctrl_site405] | 9.46
50 | GAAATAATTTCATATACACACATATACATACATACA [CACACA_site1358] | 9.6
51 | TATATATATATTGAAGTGCAAAATACTGTACGTAAT | 9.4
52 | TTAATTCTACTTATTACACACATATTAATCAAAAAT [CACACA_site1478] | 9.35
53 | TATATATATATAAACAGTACACAAATTGTAAATAAA [XGTACX_site8268] | 9.55
54 | TATATATATATATATATTGAAATTTATAATAATATT [TGCATGCA_negctrl_site407] | 8.94
55 | AAATATTTATACTATACACACCCAATTTAAAAAAAA [CACACA_site6669] | 9.58
56 | AACATAGAAACGTTATGTACATATTGAAGGATATTA [XGTACX_site6015] | 9.41
57 | ATTTTTTTATGTACACAAAAAAAAAAAAAAATTTAA [CACACA_negctrl_site1028] | 8.73
58 | ATTTGAAATGCATGAACACACACAGCTATAAATGCA [CACACA_site8229] | 9.46
59 | TAGTAATATATATTTTGTACATAAAATAATATATAA [XGTACX_site7971] | 8.96
60 | CGTTATTATCCACATACACACAGGAATAAAAAATTA [CACACA_site2883] | 9.65
61 | TATATATGTTAAAACGTGCACATATATATATATATA [GTGCAC_site9589] | 9.1
62 | ATAAAATATAAAAAAAGTACAAAAAAAAAAAAAAAA [XGTACX_site6657] | 9.05
63 | AAACTGTCGCTCATAAAGAAGAATGAAATACATTAA [TGCATGCA_negctrl_site60] | 9.05
64 | ACCCATGATTGTTACAGTACTCTACTTTCTAATATA [XGTACX_site98] | 9.59
65 | ATATATGCATATTATACACACATATGTATATACATT [CACACA_site965] | 9.56
66 | AAAAAAAAAAAAAATGCACACAATGGCTAGCTGTAC [CACACA_site2273] | 9.45
67 | TTTTCTGTATATTGTGTGCACACAATTAACAAAAAA [GTGCAC_site9817] | 9.46
68 | TGGAGGTCAGTTCACAGTACCCAGGAAATCTACGGA [XGTACX_site1995] | 8.93
69 | CCATAGATATTTTATACACACATATAACATATTAAT [CACACA_site6312] | 9.52

Row | Sequence | gcPBM binding intensity (ln)
70 | ATATTGACAAATATTACACACATATATAAATATGTA [CACACA_site7835] | 9.45
71 | ATTTATTTTAATATATGTACATATATTTTTTTATTA [XGTACX_site3389] | 9.19
72 | ATATAATATTACACAAGTACAAAAATTAATACTAAA [XGTACX_site482] | 9.36
73 | TTAGTCATATATATATGTACACACATATATATATTT [XGTACX_site2948] | 9.36
74 | ATTTTTATATAATGAACACACATATTATATCATTTA [CACACA_site1572] | 9.39
75 | AAAAGAAAATAAGAAACACACAAAAATATGTAAAAA [CACACA_site7694] | 9.79
76 | GAACATACTCAAATAGCACACACATAAATAAAAATG [CACACA_site9283] | 9.71
77 | AAAATCCACATTTTAGTACACACTTAAAAAATTATT [CACACA_site2955] | 9.27
78 | TTATATATATATATATGTACGAAAAAGAAAAAAAAG [XGTACX_site6761] | 9.35
79 | TATATATATATAATATGTACATATAATCAACATTTT [XGTACX_site3915] | 9.25
80 | ATATTATATAAATATACACACATTGTTTTATAGCAT [CACACA_site2386] | 9.46
81 | AAAAAAAAATACATATGTACATATACATATATATAT [XGTACX_site2975] | 9.18
82 | ATATATTTAATTTATGGTACACATAATTTTTTTAGA [XGTACX_site848] | 9.13
83 | TTAAAAAAAAGACACACACACATACACATATTTATA [CACACA_site7535] | 10
84 | TATATATATATATATACACACATATATATAAATATA [CACACA_site2035] | 9.2
85 | CACAAAAGTAAGCACGCACACACAACCTGAAATAAA [CACACA_site166] | 9.78
86 | TATCATTATGTAGAAACACACATAAGCTTCGGTTCA [CACACA_site2766] | 9.24
87 | GGGGAAAAAAAAAAAGGAAAAAGAAAAAAAAAAAAA [GTGCAC_negctrl_site489] | 8.55
88 | ATAAAATTTATATAAGCACACAAATATATATTTATA [CACACA_site9083] | 9.29
89 | GTAAAGGCTATATATGTGCACATTTTTTTTTTTTTT [GTGCAC_site9925] | 9.44
